From paper PMC12040169 (PLOS Biology, 2025)
The other results are listed elsewhere or left out.

system: T1, C. trachomatis L2/434/Bu expressing GFP (CTL2-GFP); set-up: species or system HeLa; C. trachomatis total inclusion area by high-content imaging, normalised to DMSO; settings: total inclusion area; 28.5 h, 10 µM; inhibitor
T1 construct: L2/434/Bu GFP intracellular growth in HeLa cells
In short: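 Imaging read-out: GFP inclusions and Hoechst nuclei captured by high-content imaging after fixation. Inclusion area/number = chlamydial growth; nuclei count = host cell viability. MIC calculated per earlier method.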

First: Cc1nn(CCNC(=O)C2CC(=O)N(Cc3ccccn3)C2)c(C)c1Cl (centres unmarked) [CBK307316]
Second: Cc1noc(C)c1NC(=O)c1cnc2ccccc2n1 [CBK200220]
The “% of control remaining” value of the first is lower: 69.7454 for the first, 78.3706 for the second.

Compared with `N#CCCN(C1CCCCC1)S(=O)(=O)c1cccc2nsnc12` [CBK009093], `N#Cc1cccc(S(=O)(=O)N2CCCCC2CO)c1` (centres unmarked) [CBK051524] is lower in “% of control remaining” value: 95.8909 for the first, 49.0309 for the second.

Going from `O=S(=O)(c1ccc(Cl)cc1)N1CCN(c2cc(-c3ccco3)ncn2)CC1` [CBK091161] to `CS(=O)(=O)Nc1ncc(-c2ccco2)cc1C(=O)NCc1ccc(F)cc1` [CBK076479], the “% of control remaining” value falls from 170.184 to 67.5477.

First: CN(C)S(=O)(=O)Nc1ccc2[nH]ccc2c1 [CBK156321]
Second: CN(C)S(=O)(=O)c1ccc2c(c1)nc1n2CCC1 [CBK115558]
The “% of control remaining” value of the first is lower: 100.36 for the first, 103.874 for the second.

Compared with `O=C1CN(Cc2cnn(-c3ccc(F)cc3)c2)CCN1C1CCCC1` [CBK281926], `COc1cccc(CN2CCCC3(C2)NCCc2c3[nH]c3cc(F)ccc23)c1` (centres unmarked) [CBK039786] is lower in “% of control remaining” value: 112.004 for the first, 72.0466 for the second.

First: Cc1ccc2cc(COc3cccnc3[N+](=O)[O-])c(Cl)nc2c1C [CBK297113]
Second: COc1ccc(OC)c(-c2nc(Nc3ccccc3C)sc2CC(=O)O)c1 [CBK126811]
The “% of control remaining” value of the first is lower: 72.1368 for the first, 85.7873 for the second.

Going from `Cc1ccc(C2(O)CCN(CCNC(=O)c3cccs3)CC2)cc1` [CBK283322] to `Cc1ccc(OCCC(=O)NCC(c2cccs2)N2CCOCC2)cc1` (centres unmarked) [CBK305976], the “% of control remaining” value falls from 85.7809 to 42.3091.

Going from `Cc1nc[nH]c1CN(Cc1cccc(F)c1)Cc1ccco1` [CBK282493] to `COc1cccc(NC(=O)N(CCCO)C2CCc3ccccc32)c1` (centres unmarked) [CBK305397], the “% of control remaining” value falls from 93.6638 to 89.0417.

First: O=C(c1ccc(OC(F)(F)F)cc1)N1CCC2(CCN(C(=O)c3cc(F)c(F)cc3F)C2)C1 (centres unmarked) [CBK131384]
Second: NC(=O)C1(N2CCCCC2)CCN(C(=S)Nc2ccc(Oc3ccccc3)cc2)CC1 [CBK265862]
The “% of control remaining” value of the first is lower: 86.1278 for the first, 117.241 for the second.

Compared with `Cc1cc(-c2cn3cc(C(=O)N4CCNCC4)nc3c(=O)n2C)c(C)o1` [CBK307325], `COc1ccc(CCn2cncc2-c2cn(C)nc2C)cc1C` [CBK281814] is higher in “% of control remaining” value: 66.4188 for the first, 114.767 for the second.

First: COc1ccccc1-c1cnc(Nc2ccc(N3CCOCC3)cc2)c2nccn12 [CBK091230]
Second: COc1ccccc1-c1cc(Nc2cccc(N(C)C)c2)ncn1 [CBK091011]
The “% of control remaining” value of the first is higher: 141.699 for the first, 101.974 for the second.

Going from `COc1cc(-c2nccnc2N[C@@H]2CCN(Cc3ccccc3)C2)cc(OC)c1OC` [CBK037651] to `COc1cc(CNc2cc(-c3ccccc3N(C)C)ncn2)cc(OC)c1OC` [CBK037123], the “% of control remaining” value falls from 131.755 to 93.7925.

Compared with `CN(C)/C=N/c1nc(=O)[nH]c2c1ncn2C1CC(O)C(CO)O1` (centres unmarked) [CBK201285], `CN(C)c1ccc(-c2nnc([C@H]3CCN(C(=O)CCC(=O)O)C3)o2)cc1` [CBK289408] is lower in “% of control remaining” value: 131.708 for the first, 109.606 for the second.

Going from `COc1ccc(C[C@@]23CC[C@@H](NC(=S)NCc4ccccc4)C[C@@H]2N(C)CC3)cc1` [CBK004262] to `COc1ccc([C@@]23CC[C@@H](NC(=O)Nc4ccc(F)c(C#N)c4)C[C@@H]2N(C)CC3)cc1OC` [CBK051659T], the “% of control remaining” value rises from 74.3538 to 99.3848.

First: CCC1CCCCN1C(=O)c1sc(C)nc1C (centres unmarked) [CBK089359]
Second: Cc1[nH]c2ccc(F)cc2c1CC(=O)N(C)CCN1CCCCC1 [CBK282748]
The “% of control remaining” value of the first is lower: 65.6688 for the first, 85.0808 for the second.

First: CCC(Sc1ccc2nnc(-c3cccnc3)n2n1)C(=O)O (centres unmarked) [CBK287623]
Second: CC(CN1CCCCC1)NC(=O)c1cc(-c2ccncc2)nc2ccc(Br)cc12 (centres unmarked) [CBK267756]
The “% of control remaining” value of the first is higher: 102.796 for the first, 89.6206 for the second.

Compared with `CC(=O)C(C(=O)Nc1ccc(F)cc1)C(c1cccc2ccccc12)C(C#N)C#N` (centres unmarked) [CBK262081], `CCOC(=O)c1ccc(NC(=O)C(C)Sc2nc3ccccc3[nH]2)cc1` (centres unmarked) [CBK267330] is higher in “% of control remaining” value: 101.526 for the first, 117.191 for the second.

First: O=C(NCC1CCCO1)c1ccccc1Sc1ccc([N+](=O)[O-])cc1Cl (centres unmarked) [CBK266041]
Second: O=C(O)c1cc(S(=O)(=O)Nc2ccccc2C(=O)O)ccc1Br [CBK262371]
The “% of control remaining” value of the first is higher: 108.546 for the first, 97.5221 for the second.

First: CCOC(=O)N1CCC(NS(=O)(=O)c2cc(Br)ccc2OC)CC1 [CBK045463]
Second: COCC(=O)NC1CCN(CC2(c3cccc(F)c3)CCCC2)CC1 [CBK282546]
The “% of control remaining” value of the first is higher: 91.5208 for the first, 74.2301 for the second.

Compared with `COC(=O)c1scc(NS(=O)(=O)c2cccc(C(F)(F)F)c2)c1C(=O)OC` [CBK026680], `COc1ccc([C@@]23CC[C@@H](NC(=O)Nc4ccc(OC)c(C(F)(F)F)c4)C[C@@H]2N(C)CC3)cc1OC` [CBK051268T] is lower in “% of control remaining” value: 89.9453 for the first, 41.0773 for the second.

First: CSc1nc(O)c(C(c2ccc(C)cc2)c2c(O)nc(SC)nc2O)c(O)n1 [CBK265313]
Second: COc1cccc(CN2CCN(C(=O)c3cc(-c4ccncc4)nc4ccc(C)cc34)CC2)c1 [CBK267760]
The “% of control remaining” value of the first is higher: 100.562 for the first, 94.4258 for the second.

Going from `O=S(=O)(Nc1ccc(N2CCNCC2)c2ccccc12)c1cc(Cl)sc1Cl` [CBK003116C] to `COC(=O)CSc1nnc(COc2ccc3c(c2)OCO3)n1-c1ccccc1` [CBK266139], the “% of control remaining” value rises from 63.2254 to 108.846.

Going from `O=C(CCN1CCOCC1)Nc1cc(Cl)cc(Cl)c1` [CBK057021] to `CCN1CCCN(c2ccnc(OCCN3CCOCC3)n2)CC1` [CBK083807], the “% of control remaining” value falls from 92.4238 to 73.1539.

First: CC(C)C(NC(=O)C1CCC(C(C)(C)C)CC1)C(=O)O (centres unmarked) [CBK286610]
Second: CCNC(=O)NC[C@H]1C[C@@H]2CCN1C[C@@H]2c1cc(-c2ccc(F)cc2)nn1C [CBK289110]
The “% of control remaining” value of the first is lower: 85.6696 for the first, 100.061 for the second.

Compared with `COc1ccccc1C1(NC(=O)CCn2cccn2)CCCC1` [CBK283626], `COc1cc(Nc2cncc(-c3cccs3)n2)cc(OC)c1OC` [CBK065663] is lower in “% of control remaining” value: 107.586 for the first, 69.7887 for the second.
